Hit rate of the full screen: of about 310,000 compounds, about 14,000 (4.5%) showed an effect of 50% or more. Effects have a minus sign here. The list shows a part of the results.
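Further: peak tail current of the secondary pulse compared with the same well before compound.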

Sequence of human ether-à-go-go-related gene (hERG) potassium channel (Q12809 whole entry, looked up): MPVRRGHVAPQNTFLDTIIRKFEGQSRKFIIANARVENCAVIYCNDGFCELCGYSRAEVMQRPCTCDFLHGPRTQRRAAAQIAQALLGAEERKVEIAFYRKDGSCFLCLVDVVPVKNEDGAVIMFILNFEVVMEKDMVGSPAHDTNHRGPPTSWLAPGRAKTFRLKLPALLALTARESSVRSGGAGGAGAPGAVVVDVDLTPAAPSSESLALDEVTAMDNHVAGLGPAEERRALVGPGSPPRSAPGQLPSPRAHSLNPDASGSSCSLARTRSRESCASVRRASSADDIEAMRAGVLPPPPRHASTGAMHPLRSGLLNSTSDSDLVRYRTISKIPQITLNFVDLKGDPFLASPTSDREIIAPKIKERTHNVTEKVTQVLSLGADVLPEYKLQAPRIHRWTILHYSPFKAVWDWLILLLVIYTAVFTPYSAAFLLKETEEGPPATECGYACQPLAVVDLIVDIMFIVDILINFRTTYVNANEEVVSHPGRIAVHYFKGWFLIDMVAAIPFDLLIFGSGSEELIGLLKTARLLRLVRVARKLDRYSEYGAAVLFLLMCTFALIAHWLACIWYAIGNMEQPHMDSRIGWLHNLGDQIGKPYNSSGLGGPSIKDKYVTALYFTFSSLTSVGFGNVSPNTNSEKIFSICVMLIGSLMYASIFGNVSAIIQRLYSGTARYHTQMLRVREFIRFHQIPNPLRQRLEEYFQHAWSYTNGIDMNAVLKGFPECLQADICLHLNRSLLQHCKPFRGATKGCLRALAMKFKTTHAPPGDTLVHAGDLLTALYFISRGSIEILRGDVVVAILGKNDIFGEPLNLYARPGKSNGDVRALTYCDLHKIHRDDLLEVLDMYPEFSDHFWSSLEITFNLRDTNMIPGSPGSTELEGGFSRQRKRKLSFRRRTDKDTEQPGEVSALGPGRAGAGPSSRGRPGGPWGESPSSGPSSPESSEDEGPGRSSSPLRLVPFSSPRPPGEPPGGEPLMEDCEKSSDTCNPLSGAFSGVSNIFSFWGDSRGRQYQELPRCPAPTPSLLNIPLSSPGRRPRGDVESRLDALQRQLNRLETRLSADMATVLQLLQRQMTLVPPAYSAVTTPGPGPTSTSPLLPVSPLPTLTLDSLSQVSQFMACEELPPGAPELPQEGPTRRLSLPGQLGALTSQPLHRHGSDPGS

The experiment concerns the target human ether-à-go-go-related gene (hERG) potassium channel (human, UniProt Q12809). Description: primary screen, population patch clamp on CHO cells stably expressing hERG.
Consider `C#Cc1ccc([C@@H]2C=C(C(=O)NC3CC3)O[C@H](OCC)[C@H]2CCCO)cc1`, for which the “hERG current change (%, negative = inhibition) at 10uM” value is recorded as -35.2%.

In the case of `O=C(Oc1ccccc1)c1cc2ccccc2oc1=O`, the “hERG current change (%, negative = inhibition) at 10uM” value is on record as 10.3%.

Regarding `Cc1ccc(Cl)cc1NC(=O)COC(=O)CC(C)(C)C`, the “hERG current change (%, negative = inhibition) at 10uM” value worked out at 2.56%.

For the compound `CC1CCCN(S(=O)(=O)CCNC(=O)c2ccccc2)C1` (centres unmarked), the “hERG current change (%, negative = inhibition) at 10uM” value amounted to 2.82%.

As to `COC(=O)c1ccc(-c2nc(-c3cccs3)no2)cc1`, the “hERG current change (%, negative = inhibition) at 10uM” value worked out at 11.5%.

For the compound `CCCc1cc(=O)[nH]c(SCC(=O)c2ccc3c(c2)NC(=O)CO3)n1`, the “hERG current change (%, negative = inhibition) at 10uM” value is -10.1%.

For the compound `COc1cc(/C=C2/C(=O)NN(c3ccc(Cl)c(Cl)c3)C2=O)cc([N+](=O)[O-])c1O`, the “hERG current change (%, negative = inhibition) at 10uM” value stood at 10.6%.

Take `COc1ccc(-n2c(=O)[nH]cc(C(=O)Nc3ccc(NC(C)=O)cc3)c2=O)cc1`: the “hERG current change (%, negative = inhibition) at 10uM” value is recorded as 9.69%.

In the case of `Cc1cc(NC(=O)CSc2nnnn2Cc2ccccc2)no1`, the “hERG current change (%, negative = inhibition) at 10uM” value is -0.78%.

Take `COc1cc(CN2CCN(Cc3ccc4cc(F)ccc4n3)CC2CCO)cc(OC)c1` (centres unmarked): the “hERG current change (%, negative = inhibition) at 10uM” value is -64.4%.

As to `COc1ccccc1C1(CC(=O)Nc2nccs2)CCOC(C(C)C)C1` (centres unmarked), the “hERG current change (%, negative = inhibition) at 10uM” value is on record as -1.39%.

Consider `Cc1cc(NC(=O)CCS(=O)(=O)c2ccc3c(c2)NC(=O)C(C)S3)ccc1Br` (centres unmarked), for which the “hERG current change (%, negative = inhibition) at 10uM” value is on record as 2.7%.

Regarding `CCN1C(=O)NC(=O)/C(=C\c2cn(CC(=O)N3CCCCC3)c3ccccc23)C1=O`, the “hERG current change (%, negative = inhibition) at 10uM” value is recorded as 9.02%.

Regarding `Cn1cnnc1SCc1ccc(C#N)cc1Cl`, the “hERG current change (%, negative = inhibition) at 10uM” value is listed as -11.5%.

Regarding `CN(C(=O)c1ccc(NC(=O)Cc2ccc(NC(=O)C3CCN(C(=O)C4CCC4)CC3)cc2)cc1)C1CC1`, the “hERG current change (%, negative = inhibition) at 10uM” value is recorded as 17.1%.

With `C#CCOC(=O)CCCNc1ccc([N+](=O)[O-])cc1[N+](=O)[O-]`, the “hERG current change (%, negative = inhibition) at 10uM” value is -51.1%.

As to `CC(/C=N/NC(=O)c1cc(-c2ccncc2)nc2ccccc12)=C\c1ccco1`, the “hERG current change (%, negative = inhibition) at 10uM” value is reported as -31.9%.

Consider `CN(C)c1cc(N/N=C\c2ccccc2)nc(N(C)C)n1`, for which the “hERG current change (%, negative = inhibition) at 10uM” value was -31.4%.

`C=CCNC(=O)/C(C#N)=C/c1ccccc1[N+](=O)[O-]`: the “hERG current change (%, negative = inhibition) at 10uM” value was -1.61%.

As for `C/C(=N\Nc1ccc(C)c(Cl)c1)c1cccnc1`, the “hERG current change (%, negative = inhibition) at 10uM” value is on record as 23%.

`COc1ccc(NC(=O)CSc2nncc3ccccc23)cc1`: the “hERG current change (%, negative = inhibition) at 10uM” value is -5.99%.

Regarding `CCOc1ccc(-c2n[nH]c(=S)o2)cc1`, the “hERG current change (%, negative = inhibition) at 10uM” value amounted to 21.2%.

Turning to `CN(C)CCCN(Cc1cc2cc3c(cc2[nH]c1=O)OCO3)C(=S)Nc1ccccc1`, the “hERG current change (%, negative = inhibition) at 10uM” value was -36.6%.

As for `COCCN1Cc2cccc(C(=O)NCc3ccccc3OC)c2C1=O`, the “hERG current change (%, negative = inhibition) at 10uM” value is reported as -11.3%.

As to `Cc1cccc(-c2noc(CCC(=O)NCCc3ccccc3)n2)c1`, the “hERG current change (%, negative = inhibition) at 10uM” value turned out to be 12%.

In the case of `COc1ccccc1NC(=O)NCc1ccccc1F`, the “hERG current change (%, negative = inhibition) at 10uM” value stood at 14.7%.

Take `CCCC(=O)NC(c1ccc(OC)c(OC)c1)c1c(O)ccc2ccccc12` (centres unmarked): the “hERG current change (%, negative = inhibition) at 10uM” value is listed as -22.3%.

For the compound `COc1ccc(O)c(/C=N/NC(=S)NCCc2ccccc2)c1`, the “hERG current change (%, negative = inhibition) at 10uM” value came to 27.1%.

Turning to `CCOc1cc(C#N)c(NC(=O)CSc2nnnn2-c2ccc(OC)cc2)cc1OCC`, the “hERG current change (%, negative = inhibition) at 10uM” value was -31.3%.

Regarding `CCCn1cc(CN2CCC(Oc3ccc(C(=O)N4CCCC4)cc3)CC2)c(C)n1`, the “hERG current change (%, negative = inhibition) at 10uM” value worked out at 8.15%.

On to `CC(C)C(OC(=O)c1ccccc1)c1nccc2ccccc12` (centres unmarked), for which the “hERG current change (%, negative = inhibition) at 10uM” value is listed as -5.8%.

For the compound `Cc1cc(C)cc(NC(=O)Nc2ccc(S(=O)(=O)Nc3cc(C)on3)cc2)c1`, the “hERG current change (%, negative = inhibition) at 10uM” value was found to be 14.3%.

Consider `COCCOC(=O)C(C#N)c1nc2ccccc2nc1N1CCN(Cc2ccccc2)CC1` (centres unmarked), for which the “hERG current change (%, negative = inhibition) at 10uM” value is recorded as -64.3%.

Turning to `COc1ccc(C2=Nn3c(nnc3-c3cc(C)[nH]n3)SC2)cc1`, the “hERG current change (%, negative = inhibition) at 10uM” value is recorded as -64%.

Turning to `CC1(C)C2CC=C(/C=N/NC(=O)c3ccc(O)cc3)C1C2` (centres unmarked), the “hERG current change (%, negative = inhibition) at 10uM” value is 2.64%.

In the case of `CCOC(=O)C(NC(=O)Nc1ccc(F)cc1F)(Oc1ccc(F)cc1)C(F)(F)F` (centres unmarked), the “hERG current change (%, negative = inhibition) at 10uM” value is 1.29%.

On to `CCOc1ccc2nc(SCc3ccc(C(=O)OC)o3)[nH]c2c1`, for which the “hERG current change (%, negative = inhibition) at 10uM” value came out at 4.11%.

Regarding `Cc1ccc(C2C(C#N)=C(N)Oc3c2c(=O)n(C)c(=O)n3C)cc1` (centres unmarked), the “hERG current change (%, negative = inhibition) at 10uM” value is reported as -4.15%.

As to `O=C(/C=C/c1ccccc1)N1CCOCC1`, the “hERG current change (%, negative = inhibition) at 10uM” value was found to be 13.9%.

On to `O=C(NCCO)NC(=S)c1ccccc1`, for which the “hERG current change (%, negative = inhibition) at 10uM” value is recorded as 3.09%.

For the compound `COc1ccc(CCNC(=O)CSc2ccc(-c3ccco3)nn2)cc1`, the “hERG current change (%, negative = inhibition) at 10uM” value is reported as -4.99%.

Turning to `COc1ccc(C(=O)NC2=NCCS2)cc1S(=O)(=O)N1CCCCC1C` (centres unmarked), the “hERG current change (%, negative = inhibition) at 10uM” value is recorded as -13.5%.

Take `Cc1ccc(N(CCC#N)C(=O)COC(=O)C2CCN(S(=O)(=O)c3ccc(C)c(C)c3)CC2)cc1`: the “hERG current change (%, negative = inhibition) at 10uM” value is -14.9%.

On to `COc1ccc(C(=O)N2CCCc3ccccc32)cc1OC`, for which the “hERG current change (%, negative = inhibition) at 10uM” value worked out at 10.7%.

Take `COc1cccc(OCC(=O)N(C)Cc2nc(-c3ccccc3)no2)c1`: the “hERG current change (%, negative = inhibition) at 10uM” value is on record as -12.1%.

Consider `COc1ccc2cc(-c3cc(C(=O)OCC(=O)NC4CCS(=O)(=O)C4)c4ccccc4n3)ccc2c1` (centres unmarked), for which the “hERG current change (%, negative = inhibition) at 10uM” value is given as 16.1%.

As for `Cc1ccc(NC(=O)COC(=O)C2CC2C)c(S(=O)(=O)N2CCCCC2)c1` (centres unmarked), the “hERG current change (%, negative = inhibition) at 10uM” value is -10.8%.

Take `COc1cccc(C(=O)CC(=O)C(=O)Nc2cc(OC)ccc2OC)c1`: the “hERG current change (%, negative = inhibition) at 10uM” value turned out to be 11.1%.

For the compound `Cc1cc(C(=O)N/N=C2\CC(=O)CC(C)(C)C2)c(C)n1-c1ccc(F)cc1`, the “hERG current change (%, negative = inhibition) at 10uM” value is reported as 4.02%.

For `CC(C/C=N/NC(=O)COc1cc(Cl)ccc1Cl)c1ccccc1` (centres unmarked), the “hERG current change (%, negative = inhibition) at 10uM” value worked out at 5.8%.

Turning to `Cc1ccnc(NC(=O)Nc2cccc(F)c2)c1`, the “hERG current change (%, negative = inhibition) at 10uM” value is reported as -4.23%.

Take `O=C(Nc1cccc(S(=O)(=O)N2CCCC2)c1)c1ccc2ccccc2n1`: the “hERG current change (%, negative = inhibition) at 10uM” value worked out at 20.9%.

On to `O=C(CNC(=O)c1ccc(Br)o1)Nc1cccc(S(=O)(=O)N2CCOCC2)c1`, for which the “hERG current change (%, negative = inhibition) at 10uM” value was -9.72%.

For the compound `CCOC(=O)Cn1c(CN2CCN(C(c3ccccc3)c3ccccc3)CC2)nc2c1c(=O)n(C)c(=O)n2C`, the “hERG current change (%, negative = inhibition) at 10uM” value is given as -38.7%.

Regarding `CC(=O)NNC(=O)CCn1nnc2ccccc21`, the “hERG current change (%, negative = inhibition) at 10uM” value is 20.8%.

Regarding `Cc1ccc(C)c2sc(NC(=O)CN3C(=O)CCC3=O)nc12`, the “hERG current change (%, negative = inhibition) at 10uM” value is -15.9%.
